# Measured values from the supplement of paper PMC5499739.
# In all, about 16,000 sequences were measured (“Z-score”: median about -0.37, highest 2% from about 3.2 on). This is one part of the list.
# System: RBM10 RRM1-ZnF (GST-tagged construct)
# Test: RNAcompete 7-mer binding Z-score; higher = stronger binding preference
# Procedure: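 RNAcompete: 20 pmol GST-tagged RBM10 RNA-binding constructs were incubated with a designed RNA pool of about 241,000 sequences up to 41 nt (1.5 nmol) on glutathione beads for 30 min at 4 °C and washed. Bound RNAs were identified by microarray hybridisation. Each RNA 7-mer is scored by a one-sided Z-score of its enrichment, computed over probes that contain the 7-mer within longer pool sequences.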
row,Sequence,RNAcompete 7-mer binding Z-score
1,CCAGAUA,-0.688
2,UAUAGAU,-0.266
3,UAUAUAC,-0.513
4,AUGUUCA,-0.727
5,CGACACC,-0.561
6,UCCUUGA,-0.72
7,GUCUGUU,-0.48
8,AAGCAAA,-0.0447
9,GACGUAG,0.608
10,AAUCAGA,-0.162
11,GGAGUAU,1.45
12,CGCCGCG,-0.217
13,UCAAUUA,-0.646
14,UUCGUCC,-0.782
15,GUUAGUA,0.342
16,GCUUGAU,-0.545
17,UCCUCAC,-0.694
18,AGUGUCA,-0.357
19,GUAAGAC,0.124
20,GUGUGAU,0.491
21,UACGGAC,0.293
22,ACCAGAC,-0.6
23,CUCCGGA,-0.347
24,GAGAAUU,0.0235

row,Sequence,RNAcompete 7-mer binding Z-score
1,AAUCGUG,-0.23
2,GGGUAAA,3.98
3,UCUGCCU,-0.857
4,CAGUGGG,2.24
5,UCACGGC,-0.681
6,GGUUGAA,1.86
7,CCUUUUA,-0.993
8,CUUAUGA,-0.62
9,UAGCGGU,0.209
10,CUUCACU,-0.828
11,ACUACCU,-0.824
12,CAUAGCC,-0.776
13,GCAUGCA,-0.116
14,CUGUACG,-0.344
15,UAAAGGA,1.62
16,GCGAUUU,-0.613
17,GCUGCGC,-0.0642
18,GUCUUUA,-0.652
19,UAGUAUU,-0.295
20,UUUAUAG,-0.483
21,CGUAGGC,0.345
22,GGCGAAC,0.686
23,GCGUGGU,1.59
24,CCACCAA,-0.724

row,Sequence,RNAcompete 7-mer binding Z-score
1,CGGGGCG,2.69
2,GCUUUCU,-0.818
3,GUACGAC,-0.165
4,UUCAUAC,-0.756
5,UACACCG,-0.464
6,CCCACUC,-0.578
7,GCCACAC,-0.37
8,AGCGAGU,0.826
9,CCAUGUG,-0.454
10,AGGUCCG,-0.266
11,GCCGCAG,-0.275
12,AGAGGCC,-0.629
13,UAGCACC,-0.581
14,AACUUUA,-0.815
15,ACAAUGG,1.33
16,UUUGCAC,-0.623
17,CAUUCAG,-0.646
18,CGCUGGU,0.332
19,CUGAUGG,0.55
20,GAAAUCA,-0.415
21,CCGUUUG,-0.85
22,UUUCCUA,-0.889
23,CGAGCAA,-0.0285
24,CCAGGAG,0.758

row,Sequence,RNAcompete 7-mer binding Z-score
1,GUCGUGC,-0.181
2,CUGAGGU,0.842
3,UUGCCUG,-0.642
4,UAGUUCG,-0.571
5,CCGAAGU,-0.431
6,CCGGUGG,0.988
7,UUAAGAU,-0.422
8,UGAAACU,-0.552
9,UACAAUU,-0.591
10,CCGAGGG,0.943
11,UACCAUU,-0.737
12,CGCAUUG,-0.347
13,UGGCAAU,-0.022
14,AUACAGC,-0.503
15,CAGCUUU,-0.821
16,CCAAAGU,-0.604
17,UGUCGGU,0.248
18,GACCAGA,-0.233
19,GUCUCGC,-0.607
20,AGUGAAG,1.64
21,CCAGCCU,-0.714
22,UCCGGGG,1.4
23,AGAAAGU,0.345
24,UAACCUU,-0.824

row,Sequence,RNAcompete 7-mer binding Z-score
1,UACGCCU,-0.688
2,UCGUACU,-0.539
3,UGCCUCU,-0.789
4,GGUCUCC,-0.113
5,CUUUGAU,-0.73
6,GUACCUA,-0.5
7,GCCCUUC,-0.724
8,UACUUCU,-0.815
9,CCUUAGA,-0.694
10,ACUGCUC,-0.902
11,AGCAAAC,-0.152
12,AACUUCA,-0.74
13,CCCGAAG,-0.597
14,UGUGCGU,0.0885
15,AACGUGA,0.14
16,ACAGUAG,0.29
17,UGUAUUC,-0.587
18,CCGCAUG,-0.383
19,UUGGAUG,1.73
20,CUUCAGA,-0.909
21,CUAUCAC,-0.681
22,CGACUCC,-0.88
23,GGACACA,0.8
24,GUAUGCC,-0.363

row,Sequence,RNAcompete 7-mer binding Z-score
1,AACACCA,-0.584
2,GGUUUGG,3.62
3,UUGGGCC,0.452
4,AAGUGUC,-0.402
5,UUUAUAU,-0.532
6,AACAUAC,-0.578
7,AAGAAGC,0.189
8,AGAGUCA,-0.0934
9,GGCAACG,0.923
10,UCUAAUG,-0.545
11,UCGCUAU,-0.629
12,ACCUGAG,-0.327
13,GUGUCUU,-0.246
14,GUGCACG,0.426
15,UGUAAAC,-0.272
16,AGGGGUU,2.52
17,GAACUGG,1.24
18,GCUAUGA,-0.217
19,UUAAUUU,-0.74
20,CUGGGGC,0.901
21,CGAAUAA,-0.441
22,UCAAUCA,-0.503
23,CAAUGAC,-0.617
24,UCUUUCU,-0.915

row,Sequence,RNAcompete 7-mer binding Z-score
1,CAUCGUU,-0.659
2,CUGUAGA,-0.246
3,GUGACUG,0.491
4,ACGCCCU,-0.532
5,UAUGGAG,1.67
6,AAUACGU,-0.311
7,ACGCAAA,-0.36
8,AAGGGGU,4.48
9,GGCGACA,0.823
10,CGUCGUU,-0.47
11,CGAAAUC,-0.737
12,CGAAAUU,-0.737
13,AGAUCCG,-0.824
14,CUGCUAC,-0.607
15,GAAAACA,0.069
16,GCGCUCC,-0.506
17,ACAGUAC,-0.535
18,CGAUAUA,-0.558
19,ACGGCGC,-0.295
20,GAAGAAG,2.82
21,UGACGUG,0.189
22,UAUACAA,-0.292
23,AGCGCAG,0.322
24,AACGGCC,-0.574

row,Sequence,RNAcompete 7-mer binding Z-score
1,UGUGGAA,2
2,UGAGGCC,0.0625
3,ACACCAA,-0.665
4,UGAUAGA,0.192
5,CUGUUUA,-0.815
6,GGGGAUA,3.45
7,AGUCAAA,-0.392
8,GCCCGUU,-0.642
9,AUUCGUA,-0.61
10,GGGGCCA,0.92
11,UCCUGUG,-0.357
12,UACCAAG,-0.461
13,ACCUCGC,-0.496
14,CUAAUCG,-0.321
15,CCGAGCC,-0.665
16,CGAGCGC,-0.253
17,GGGAACU,1.29
18,CAUUACU,-0.779
19,AUUCGCG,-0.49
20,AGUUCAG,-0.155
21,UAGAAGG,3.12
22,GUUGAAG,1.99
23,UACUGAU,-0.558
24,UCAGCGU,-0.373

row,Sequence,RNAcompete 7-mer binding Z-score
1,GGAGUUU,1.19
2,UAGUGGA,1.54
3,ACUCAAA,-0.675
4,AAGUUGC,-0.308
5,CCAAAUG,-0.571
6,AGCGCCG,-0.448
7,AACCUUG,-0.886
8,UCGAACG,-0.149
9,AACGCUU,-0.724
10,UAGAUCC,-0.529
11,UAAGCGU,-0.0447
12,AGAAUAG,0.514
13,GGUCUUC,-0.21
14,AACGAAC,-0.444
15,CCCUGCA,-0.789
16,AGUGCUA,-0.0577
17,GCACCGA,-0.266
18,AACCCCU,-0.698
19,GUGAAAU,0.758
20,UAGCCAU,-0.72
21,CCCCGUU,-0.704
22,AAACGGG,2.75
23,AAUGAUU,-0.347
24,CGGCUCG,-0.21

row,Sequence,RNAcompete 7-mer binding Z-score
1,UUGGCUG,0.0918
2,AGGAGUG,2.91
3,CCUCACC,-0.509
4,AGGUAUU,0.618
5,GGUCCGA,0.0625
6,AUAUCAC,-0.613
7,UACUAGU,-0.535
8,UGACGGC,0.228
9,AAGUCGU,-0.194
10,AGGGCCU,-0.142
11,UCUCAUC,-0.854
12,AAUCCGC,-0.72
13,CAGGAGC,1.24
14,GGACAAU,0.927
15,AUUUCAC,-0.724
16,CUGACUA,-0.405
17,UGUUUUC,-0.73
18,UCGGGGU,2.07
